Results taken from PubChem BioAssay AID1030 (National Center for Advancing Translational Sciences (NCATS), 2008).
Among all 220,000 compounds or so, about 16,000 (7.3%) were called active. Inconclusive results, whose numbers are uncertain, are shown with a selection of clear calls. Calls follow the shape of the dose curve; as a rule, active = well fitted inhibition curve with a large enough effect (not every such curve was filed as active); inconclusive = small, poorly fitted or top-dose-only effect, or another doubt; inactive = no such curve, though single readings can be large or run the other way. No potency is given beside an inconclusive call; the fits are too rough.

Biological target: Aldehyde dehydrogenase 1A1 (Homo sapiens) (UniProt P00352)
UniProt P00352, sequence (P00352 whole entry, looked up): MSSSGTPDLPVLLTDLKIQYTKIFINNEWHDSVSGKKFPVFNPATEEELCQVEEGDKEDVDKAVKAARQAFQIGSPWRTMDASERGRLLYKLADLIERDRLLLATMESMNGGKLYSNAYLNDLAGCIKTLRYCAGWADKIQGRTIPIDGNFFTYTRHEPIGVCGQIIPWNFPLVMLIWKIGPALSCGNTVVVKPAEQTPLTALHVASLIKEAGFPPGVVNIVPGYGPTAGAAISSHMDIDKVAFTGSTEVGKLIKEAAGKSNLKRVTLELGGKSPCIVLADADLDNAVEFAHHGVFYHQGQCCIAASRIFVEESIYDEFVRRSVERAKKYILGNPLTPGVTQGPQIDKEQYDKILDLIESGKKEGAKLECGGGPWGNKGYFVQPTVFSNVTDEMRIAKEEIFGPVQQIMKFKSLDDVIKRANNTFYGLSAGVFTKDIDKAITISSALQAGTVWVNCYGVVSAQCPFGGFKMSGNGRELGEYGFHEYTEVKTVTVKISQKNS
Assay: qHTS Assay for Inhibitors of Aldehyde Dehydrogenase 1 (ALDH1A1);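 as to activity, negative = inhibition: plate controls were no enzyme wells and a reference inhibitor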
Settings: Purified ALDH1A1, NADH fluorescence, propionaldehyde substrate; series mostly up to 75.3 µM; activity, negative = inhibition: at the top concentration
Potency is read from the fitted curve at half-maximal effect; tags tell the direction and shape of the fitted curve.

SMILES | Potency | activity, negative = inhibition
Cc1ccc(S(=O)(=O)Oc2ccc(C3C4=C(CCCC4=O)OC4=C3C(=O)CCC4)cc2)cc1 | inconclusive [inhibitor, partial curve] | 
COc1cc(/C=N\NC(=O)C2C(=O)NCC2c2ccccc2)cc(OC)c1O (stereo not given) |  | inactive: -7.71%
NC(=O)c1ccccc1N/C=C/C(=O)c1ccccc1 | inconclusive [inhibitor, single point] | 
O=C(Oc1c(Cl)cc(Cl)c2cccnc12)c1cccs1 | inconclusive [inhibitor, single point] | 
COc1ccc(OCC(O)CN2C(=O)NC(C)(C)C2=O)cc1 (stereo not given) | inconclusive [inhibitor, single point] | 
CCCCC(C)(O)C/C=C/[C@H]1[C@H](O)CC(=O)[C@@H]1CCCCCCC(=O)O (stereo not given in full) | inactive | 
CCN(CC)S(=O)(=O)c1ccc2c(c1)c(=O)c(C(=O)NCCN(C)CCc1ccccc1)cn2C | inconclusive [inhibitor, single point] | 
Nc1cc(Cl)ccc1C(=O)OCC(=O)N1CCOCC1 | inconclusive [inhibitor, partial curve] | 
CN(c1ccccc1C(=O)N1CCN(c2ccccc2)CC1)S(C)(=O)=O |  | inactive: 7.1%
Cc1ncc(CN2CCC(CO)(CCc3ccccc3)CC2)s1 | inconclusive [inhibitor, single point] | 
CC(C)OC(=O)CSc1nc(Cc2ccccc2)nc2ccccc12 | inconclusive [inhibitor, single point] | 
Cc1ccc2nsnc2c1NC(=O)CCl | inconclusive [inhibitor, single point] | 
CC(CC(=O)c1cccs1)CC(=O)c1cccs1 | active: 7.94 µM | 
CCC(=O)c1ccc(OCC(O)CN2CCCCC2)cc1 (stereo not given) |  | inactive: 19.8%
Cc1cc(C)cc(NC(=O)c2cc(=O)c3ccccc3o2)c1 | inconclusive [inhibitor, partial curve] | 
O=C1C(C2=NC(C(=O)O)C3C(=O)N(c4ccccc4)C(=O)C23)=C(O)c2ccccc21 (stereo not given) |  | inactive: -37.9%
N=c1n(CC(=O)c2ccc([N+](=O)[O-])cc2)c2ccccc2n1Cc1ccccc1Cl |  | inactive: -11.4%
COc1ccc(C2CC(=O)C(C=NCCN3CCNCC3)=C(O)C2)cc1OC (stereo not given) | inconclusive [inhibitor, single point] | 
O=C(O)c1ccc(-c2ccc(-c3ccccc3)cc2)o1 | inconclusive [inhibitor, single point] | 
C/C(CC(=O)Nc1cccc2c1CCCC2)=N\NC(=O)c1ccccc1N | inconclusive [inhibitor, partial curve] | 
